Measured values as given in ChEMBL document CHEMBL4888484, “Replenishing the malaria drug discovery pipeline: Screening and hit evaluation of the MMV Hit Generation Library 1 (HGL1) against asexual blood stage Plasmodium falciparum ,using a nano luciferase reporter read-out” (2022).
Where “and” joins values, the source holds several entries; their conditions need not be identical. Identical values can stand only once. Hit rate of the full screen: of about 150,000 compounds, about 540 (0.36%) showed an effect of 50% or more. The list shows a part of the results.

Tested on: Plasmodium falciparum
Assay: Primary screen in NF54 nanoGlo assay, in single point, at 2uM, 72h; a lower Z score goes with more inhibition
Assay type: functional, Erythrocyte
Conditions: timepoint 72 hour

CN(c1ccc2c(c1)CCO2)S(C)(=O)=O
% Inhibition: 13% | Z score: -1.53

Cc1ccnc(NCC2CCC(S(C)(=O)=O)CC2)n1 (configuration not stated)
% Inhibition: 6% | Z score: -0.94

O=C1c2ccccc2[C@H](O)N1COc1cccc(F)c1
% Inhibition: -10% | Z score: 1.17

Cc1nc2scc(C3CC3)n2c1CNC[C@H]1CN(C)CCO1
% Inhibition: -8% | Z score: 1.52

CCN(CC)CCNC(=O)c1ccc(N2CCCc3ccccc32)s1
% Inhibition: 2% | Z score: -0.21

O=C(N[C@H]1CC[C@H](n2cnnc2)CC1)c1cccc(-n2cnnc2)n1
% Inhibition: 8% | Z score: -1.13

CN(C)S(=O)(=O)Nc1cccc(COCC(F)(F)F)c1
% Inhibition: -6% | Z score: 0.84

Cc1nc2ccc(C(=O)Nc3cccc(C(=O)N4CCC[C@H](O)C4)c3)cc2n1C
% Inhibition: -6% | Z score: 0.8

CN1C(=O)[C@]2(Nc3ccccc3C(=O)N2c2ccc(F)cc2)c2ccccc21
% Inhibition: -3% | Z score: 0.41

Cc1ccc(C(=O)NCCC(=O)NC[C@](C)(O)c2ccsc2)c(O)c1
% Inhibition: 8% | Z score: -1.46

COc1cc2c(cc1OC)[C@@H](NC(=O)Cn1c(C)nc3cc(OC)c(OC)cc3c1=O)CC2
% Inhibition: 7% | Z score: -0.98

Cn1ccc2cccc(NC(=O)[C@@]3(C)CCNC(=O)C3)c21
% Inhibition: 4% | Z score: -0.5

CN1C[C@@H](NC(=O)c2cccc(Cl)c2)CC1=O
% Inhibition: 4% | Z score: -0.57

CCNC(=O)c1ccc2cn(CC)nc2c1
% Inhibition: -23% | Z score: 3.3

CCOc1cc(CNCCN2CCOCC2)cc(Cl)c1OCc1ccccc1
% Inhibition: 38% | Z score: -0.96

Cc1cccc(Cn2ncc(C)c2NC(=O)NCCc2cc(O)nc(C)n2)c1
% Inhibition: -12% | Z score: 1.76

C[C@@H](CNC(=O)c1cc2c(s1)CCC2)N1CCOCC1
% Inhibition: -11% | Z score: 1.8

O=C(NC1CCCCC1)[C@H](Cc1ccccc1)NC(=O)N1CC(O)=Nc2ccccc21
% Inhibition (2 µM): 5% and -6%

O=S(=O)(Nc1nnc(CC2CCCC2)o1)c1ccccc1
% Inhibition: -10% | Z score: 1.06

COCCNC(=O)c1ccc(-c2cccc3c2CCNC3)o1
% Inhibition: -15% | Z score: 2.03

Cc1cc(S(=O)(=O)NCc2cccc3c2OCO3)sc1Cl
% Inhibition: 2% | Z score: -0.25

CC(C)(C)c1cc(C(F)(F)F)nc(NC(=O)NS(=O)(=O)N2CCCCCC2)n1
% Inhibition: -5% | Z score: 1

COc1ccc2nc(NC(=O)CCc3nc(CS(=O)(=O)c4ccc(C)cc4)no3)sc2c1
% Inhibition: -5% | Z score: 0.91

O=C(c1cc2c(ccc3ccccc32)o1)N1CCCC1
% Inhibition: -16% | Z score: 3.18
